# From the supplement of paper PMC2702839
# Where a name gives a salt, the structure may show the parent alone. The list shows a part of the results.
# Tested on: Schistosoma mansoni schistosomula
# Assay: phenotypic hit in primary schistosomula screen (any phenotype vs DMSO control) (binary (1 = hit, 0 = no phenotype)); higher = active (phenotype induced)
# Conditions: 1 µM; time (d): 7
row,SMILES,phenotypic hit
1,Clc1ccc(COC(Cn2ccnc2)c2ccc(Cl)cc2Cl)c(Cl)c1 (stereo not given) [miconazole nitrate],active: 1
2,NC12CC3CC(CC(C3)C1)C2 [Amantadine hydrochloride],inactive: 0
3,COc1cc(O)c2c(=O)c(O)c(-c3ccc(O)c(O)c3)oc2c1 [rhamnetin],inactive: 0
4,CC(=O)NO [acetohydroxamic acid],inactive: 0
5,COc1ccc(-c2c(O)c3c(OC)c4c(cc3oc2=O)OC(C)(C)C=C4)cc1 [robustic acid],inactive: 0
6,CC(C)(Oc1ccc(Cl)cc1)C(=O)O [clofibric acid],inactive: 0
7,CN1CCCN=C1COC(=O)C(O)(c1ccccc1)C1CCCCC1 (stereo not given) [oxyphencyclimine hydrochloride],inactive: 0
8,CCCCCCCCCCC[C@@H](C[C@@H]1OC(=O)[C@H]1CCCCCC)OC(=O)[C@H](CC(C)C)NC=O [orlistat],inactive: 0
9,CC(=O)Oc1c(-c2ccccc2)oc2c(CC=C(C)C)c3c(c(OC(C)=O)c2c1=O)C=CC(C)(C)O3 [sericetin diacetate],inactive: 0
10,O=C1O[C@H](CO)[C@@H](O)[C@H](O)[C@H]1O [gluconolactone],inactive: 0
11,CC(=O)N[C@@H](CC(=O)O)C(=O)O [n-acetylaspartic acid],inactive: 0
12,COc1cc(C/C=C/c2ccccc2)c(OC)cc1O [violastyrene],inactive: 0
13,CO[C@H]1C[C@H](O[C@H]2[C@H](C)[C@@H](O[C@@H]3O[C@H](C)C[C@H](N(C)C)[C@H]3OC(C)=O)[C@@H](C)C[C@@]3(CO3)C(=O)[C@H](C)[C@@H](OC(C)=O)[C@@H](C)[C@@H](C)OC(=O)[C@@H]2C)O[C@@H](C)[C@@H]1OC(C)=O [troleandomycin],inactive: 0
14,CC(C)(S)[C@@H](N)C(=O)O [penicillamine],inactive: 0
15,CC(=O)Oc1c(Cl)c(C)c2c(c1Cl)OC(=O)c1c(C)c(Cl)c(OC(C)=O)c(Cl)c1O2 [nordiploicin diacetate],inactive: 0
16,CC(=O)NCCc1c[nH]c2ccc(O)cc12 [acetylserotonin],inactive: 0
17,CN1CCC(=C2c3ccccc3CC(=O)c3sccc32)CC1 [ketotifen fumarate],inactive: 0
18,CCCN(CCC)C(=O)C(CCC(=O)O)NC(=O)c1ccccc1 (stereo not given) [Proglumide],inactive: 0
19,CCCCC[C@H](CC(=O)O)C(=O)O [nonic acid],inactive: 0
20,CC[C@H](CC[C@@H](C)[C@H]1CC[C@H]2[C@@H]3CC=C4C[C@@H](O)CC[C@]4(C)[C@H]3CC[C@]12C)C(C)C [beta-sitosterol],inactive: 0
21,CC(C)(Sc1cc(C(C)(C)C)c(O)c(C(C)(C)C)c1)Sc1cc(C(C)(C)C)c(O)c(C(C)(C)C)c1 [probucol],inactive: 0
22,COc1cc(-c2coc3cc(OC)c(OC)c(OC)c3c2=O)cc(OC)c1OC [irigenin trimethyl ether],inactive: 0
23,Cn1ccnc1S [methimazole],inactive: 0
24,Oc1ccc(Cl)c2cccnc12 [cloxyquin],inactive: 0

row,SMILES,phenotypic hit
1,Nc1c(Br)cc(Br)cc1CN[C@H]1CC[C@H](O)CC1 [ambroxol hydrochloride],inactive: 0
2,C[C@]12CCC3c4ccc(OC(=O)c5ccccc5)cc4CCC3C1CCC2=O (stereo not given in full) [estrone benzoate],inactive: 0
3,C=CCc1ccc(OC(=O)c2ccccc2)c(OC)c1 [eugenyl benzoate],inactive: 0
4,CCN(CC)CCOC(=O)C(c1ccccc1)C1CCCCC1 (stereo not given) [drofenine hydrochloride],inactive: 0
5,COc1cc(Cc2cnc(N)nc2N)cc(OC)c1OC [Trimethoprim],inactive: 0
6,CO[C@@]1(NC(=O)Cc2cccs2)C(=O)N2C(C(=O)O)=C(COC(N)=O)CS[C@@H]21 [cefoxitin sodium],inactive: 0
7,CC(=O)O[C@H]1CC[C@]2(C)C3C(=O)[C@@H](OC(C)=O)[C@@]4(C)C(C[C@@H]5O[C@]6(CCC(C)CO6)[C@@H](C)[C@@H]54)C3CC[C@H]2C1 (stereo not given in full) [11-ketorockogenin acetate],inactive: 0
8,"COc1cccc2c1CCC1=CC(=O)CC[C@@]12C [14-methoxy-4,4-bisnor-4,8,11,13-podocarpatetraen-3-one]",inactive: 0
9,CCCCC(CC)CN1CN(CC(CC)CCCC)CC(C)(N)C1 (stereo not given) [hexetidine],active: 1
10,Cc1cccc(C)c1NC(=O)C1CCCCN1C (stereo not given) [mepivacaine hydrochloride],inactive: 0
11,COc1ccc(C2C(=O)c3ccccc3C2=O)cc1 [anisindione],inactive: 0
12,CC(=O)Oc1ccc2c(c1)CC[C@@H]1[C@@H]2CC[C@]2(C)[C@@H](OC(C)=O)CC[C@@H]12 [estradiol diacetate],active: 1
13,CN1C(C(=O)Nc2ccccn2)=C(O)c2sccc2S1(=O)=O [tenoxicam],inactive: 0
14,N=C(N)N [guanidine carbonate],inactive: 0
15,C[C@]12CC[C@H]3C(=CCc4cc(O)ccc43)[C@@H]1CCC2=O [equilin],inactive: 0
16,C=C[C@H]1CN2CC[C@H]1C[C@@H]2[C@@H](O)c1ccnc2ccc(OC)cc12 [quinidine gluconate],inactive: 0
17,Cc1c(C(N)=O)cc([N+](=O)[O-])cc1[N+](=O)[O-] [dinitolmide],inactive: 0
18,"COc1ccc2c(c1OC)OC[C@@H](c1ccc(OC)c(OC)c1OC)C2 [duartin, dimethyl ether]",inactive: 0
19,CS(=O)(=O)c1ccc(C2=C(c3ccccc3)C(=O)OC2)cc1 [rofecoxib],inactive: 0
20,CCC/C=C1\OC(=O)C2=C1CCC=C2 [ligustilide],inactive: 0
21,Cn1c(=O)c2[nH]cnc2n(C)c1=O [Aminophylline],inactive: 0
22,NC(N)=NCCC[C@H](N[C@H](CCC(=O)O)C(=O)O)C(=O)O [nopaline],inactive: 0
23,CN(C)CCC=C1c2ccccc2CCc2ccccc21 [Amitriptyline hydrochloride],active: 1
24,CCC(=O)OC1[C@@H]2CC3=C4CC(=O)O[C@@H](c5ccoc5)[C@]4(C)CCC3[C@@](C)(C2=O)[C@@H](CC(=O)OC)C1(C)C (stereo not given in full) [khayasin c],inactive: 0

row,SMILES,phenotypic hit
1,O=C(Nc1ccccc1)c1ccccc1O [salicylanilide],inactive: 0
2,COC(=O)C[C@H]1C(C)(C)C(=O)[C@@H]2CC3=C(CC[C@]4(C)C3=CC(=O)O[C@H]4c3ccoc3)[C@@]1(C)C2=O [carapin-8 (9)-ene],inactive: 0
3,CN[C@H](CC(C)C)C(=O)N[C@H]1C(=O)N[C@@H](CC(N)=O)C(=O)N[C@H]2C(=O)N[C@H]3C(=O)N[C@H](C(=O)N[C@H](C(=O)O)c4cc(O)cc(O)c4-c4cc3ccc4O)[C@H](O)c3ccc(c(Cl)c3)Oc3cc2cc(c3O[C@@H]2O[C@H](CO)[C@@H](O)[C@H](O)[C@H]2O[C@H]2C[C@](C)(N)[C@H](O)[C@H](C)O2)Oc2ccc(cc2Cl)[C@H]1O [vancomycin hydrochloride],inactive: 0
4,C[C@H](N)C(=O)NC(Cc1ccccc1)C(=O)O (mixture of isomers) [alanyl-dl-phenylalanine],inactive: 0
5,O=c1c(O)c(-c2ccc(O)c(O)c2)oc2cc(O)ccc12 [fisetin],inactive: 0
6,NS(=O)(=O)c1cc2c(cc1Cl)N=CNS2(=O)=O [Chlorothiazide],inactive: 0
7,CCOC(=O)[C@H](CCc1ccccc1)N[C@@H](C)C(=O)N1[C@H](C(=O)O)C[C@@H]2CCC[C@@H]21 [ramipril],inactive: 0
8,CCOc1ccc2c(c1)C(C)=CC(C)(C)N2 [ethoxyquin],inactive: 0
9,C#CCCCCCCCCCCCC(O)CC(O)CO.C=CCCCCCCCCCCCC(O)CC(O)CO (stereo not given) [avocatin b],active: 1
10,CCC(CCC(C)C1CCC2C3CCC4CC(O)CCC4(C)C3CCC12C)C(C)C (stereo not given) [fucostanol],inactive: 0
11,CC(C)COCC(CN(Cc1ccccc1)c1ccccc1)N1CCCC1 (stereo not given) [Bepridil hydrochloride],inactive: 0
12,C=NC(C(=O)NC1C(=O)N2C1SC(C)(C)C2C(=O)O)c1ccccc1 (stereo not given) [metampicillin sodium],inactive: 0
13,"Cn1c(=O)c2[nH]c(C3CCCC3)nc2n(C)c1=O [8-Cyclopentyl-1,3-dimethylxanthine]",inactive: 0
14,CC1=CC2C(C(C)C)CCC(C)(O)C2CC1 (stereo not given) [cadin-4-en-10-ol],inactive: 0
15,NS(=O)(=O)c1cc(C(=O)O)c(NCc2ccco2)cc1Cl [furosemide],inactive: 0
16,COc1ccc2ccc(=O)oc2c1 [herniarin],inactive: 0
17,CC(=O)CC(=O)CCC(=O)O [succinylacetone],inactive: 0
18,CC(=O)Oc1cc(C)c2c(c1C(OC(C)=O)OC(C)=O)Oc1c(c(C)c(OC(C)=O)c3c1C(OC(C)=O)OC3=O)OC2=O (stereo not given) [norstictic acid pentaacetate],inactive: 0
19,Cc1cc(C2CCCCC2)n(O)c(=O)c1 [ciclopirox olamine],inactive: 0
20,O=C(O)c1cc2cc(Cl)ccc2[nH]1 [5-chloroindole-2-carboxylic acid],inactive: 0
21,COc1cccc(OC)c1OCCNCC1COc2ccccc2O1 (stereo not given) [WB-4101 hydrochloride],inactive: 0
22,CC(C)(O)[C@H]1CC[C@]2(C)[C@H]3CC[C@@H]4[C@@]5(C)CCCC(C)(C)[C@@H]5[C@@H](O)C[C@@]4(C)[C@]3(C)CC[C@@H]12 [zeorin],inactive: 0
